Data from PubChem BioAssay AID493208 (National Center for Advancing Translational Sciences (NCATS), 2011).
The whole screen tested about 44,000 compounds, of which about 340 (0.77%) were called active. About 5% were inconclusive and are not listed. Calls follow the shape of the dose curve; as a rule, active = well fitted inhibition curve with a large enough effect; inconclusive = small, poorly fitted or top-dose-only effect; inactive = flat fitted curve, though single readings scatter. The list shows a part of the results.

test: Acumen qHTS Assay for Inhibitors of the mTORC1 Signaling Pathway in MEF (Tsc2-/-, p53-/-) Cells: Sytravon; settings: phospho-rpS6 immunofluorescence/PI, 24 h; series mostly up to 38.3 µM; activity change, negative = inhibition: at the top concentration;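 also: plate controls were DMSO for no effect and rapamycin for full effect; nearly all actives have a fitted effect of over 50% in size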
Method in brief: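 Compounds act on Tsc2-/-, p53-/- fibroblasts carrying an empty vector for 24 h before fixation and dual staining for phospho-S6 and DNA (propidium iodide). Values are percentages of cells above a rapamycin-defined pS6/PI threshold.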

Compound	activity change, negative = inhibition
CC(C)(C)OC(=O)N1CCC(c2c(C(=O)N3CCN(C(=O)c4ccco4)CC3)cnn2-c2ccccc2Cl)CC1	inactive: 3.4%
COCCCNC(=O)c1ccc2c(c1)NC(=O)C(C(C)C)N2 (stereo unspecified)	inactive: 9.68%
CCc1ccc(S(=O)(=O)c2nnn3c2nc(NCCNC(C)=O)c2cc(Cl)ccc23)cc1	inactive: 1.6%
CC(C)(C)NC(=O)c1oc2ccccc2c1NC(=O)c1ccc(F)cc1	inactive: 2.87%
COc1ccc(CCN2C(=O)CN(C3CCC(C)CC3)C(=O)C2c2ccc(OC(C)C)c(OC)c2)cc1OC (stereo unspecified)	inactive: -22.9%
Cc1ccccc1C(=O)c1cccn1CC(=O)NCc1cccc(Cl)c1	inactive: -0.518%
CCc1nn(CCCC(=O)NC(C)c2ccccc2)c(=O)c2cc3occc3n12 (stereo unspecified)	inactive: 0.232%
Cc1ccc(Cn2cc(CCC(=O)NCc3ccc(OC(C)C)cc3)c3ccccc32)cc1	inactive: 0%
CCCCNC(=O)C(CC)Sc1nc2ccccc2c(=O)n1CCc1ccc(OC)c(OC)c1 (stereo unspecified)	inactive: -7.76%
COCCN(CCOC)c1ncnc2c1c(-c1ccccc1)cn2-c1ccc(C)c(Cl)c1	inactive: -5.92%
Cc1ccc(NC(=O)Cn2c(=O)n(Cc3ccc4c(c3)OCO4)c(=O)c3ccc(C(=O)NC4CCCCC4)cc32)c(C)c1	inactive: -8.86%
CCc1ccc(NC(=O)Cn2c(-c3cncs3)nc3ccccc32)cc1	inactive: -3.47%
CCn1c2ccccc2c2cc(CN3CCN(Cc4ccccc4C)CC3)ccc21	inactive: -14.2%
COc1ccc(C)cc1NC(=O)c1ccc2c(c1)nnn2C1CCCC1	inactive: 3.15%
COc1ccccc1C(=O)Nc1ccc(OCc2cc(=O)n3cc(C)sc3n2)cc1	inactive: 1.67%
Cc1ccc2[nH]c(=O)c3cc(C(=O)NCCc4ccc(Cl)cc4)sc3c2c1	inactive: -4.99%
c1ccc(OCCn2c(COc3ccccc3)nc3ccccc32)cc1	inactive: 7.96%
O=C1c2oc3ccccc3c(=O)c2C(c2cccc(Cl)c2)N1c1ccccn1 (stereo unspecified)	inactive: 6.33%
O=C(Cn1c(=O)c2cccn2c2cccnc21)NCc1ccccc1F	inactive: 2.74%
CC1=C(C(=O)Nc2ccc(C)cc2C)C(c2ccccc2F)n2nc(SCC(=O)c3ccc(C)cc3)nc2N1 (stereo unspecified)	inactive: 0.241%
O=S(=O)(Nc1ccc(-c2ccc(N3CCCC3)nn2)cc1)c1cc(F)ccc1F	inactive: -1.75%
Cc1cc2nc(-c3ccc(OCc4ccccc4)cc3)cc(C(F)(F)F)n2n1	inactive: 1.96%
CCc1ccc(NC(=O)c2cnc3sc(N4CCCC4)nn3c2=O)cc1	inactive: 8.97%
O=C(Nc1ccc(S(=O)(=O)N2CCCCCC2)cc1)c1cc(=O)c2ccccc2o1	inactive: -13.2%

Compound	activity change, negative = inhibition
Cc1cc(-n2c(C)nc3ccccc3c2=O)ccc1NC(=O)c1ccc([N+](=O)[O-])cc1	inactive: 0.688%
CC(=O)c1ccc(N2CCN(C(=O)CCS(=O)(=O)c3ccc4c(c3)oc(=O)n4C)CC2)cc1	inactive: -1.18%
CCOc1ccc(N2CC(C(=O)NCc3nnnn3-c3ccc(C)c(C)c3)CC2=O)cc1 (stereo unspecified)	inactive: 5.3%
CCOc1ccc(NS(=O)(=O)c2ccc3[nH]cc(C(=O)NCC4CCCO4)c(=O)c3c2)cc1 (stereo unspecified)	inactive: -9.21%
COC(=O)CN1C(=O)CSc2ccc(S(=O)(=O)Nc3cccc(Cl)c3C)cc21	inactive: -1.81%
Nc1c(-c2nc(-c3ccc(F)cc3)cs2)c2ccccn2c1C(=O)c1ccc2c(c1)OCO2	inactive: -0.492%
Cc1cc(=O)n(CC(=O)N2CCN(c3ccc(F)cc3)CC2)c2c1c(C)nn2C	inactive: -0.679%
COc1ccc(NCc2cc3ccc(OC)cc3n(CC(=O)Nc3cc(Cl)ccc3C)c2=O)cc1	inactive: -7.09%
CCSc1ncc(Cl)c(C(=O)Nc2sc3c(c2C(=O)NC)CCCC3)n1	inactive: 1.26%
CC(Oc1ccccc1F)C(=O)Nc1ccc(-c2nc3ccccc3s2)cc1 (stereo unspecified)	inactive: -4.69%
CCc1cccc(NC(=O)CN(C)S(=O)(=O)c2cccc3cccnc23)c1	inactive: -4.69%
CC1CCc2c(sc(NC(=O)c3cc4nc(-c5ccc(Cl)cc5)cc(C(F)(F)F)n4n3)c2C#N)C1 (stereo unspecified)	inactive: -0.128%
COc1ccc(S(=O)(=O)c2cnc(SCC(=O)Nc3cc(F)ccc3C)[nH]c2=O)cc1Cl	inactive: -1.82%
CCC1CCCCN1C(=O)c1sc(-n2nc(C)c(Cc3ccccc3)c2C)nc1C (stereo unspecified)	inactive: -3.41%
Cc1ccc(Cl)cc1NC(=O)CN1C(=O)C(C)(C)c2cc(S(=O)(=O)N3CCCCC3)ccc21	inactive: -13.1%
CC(C)CCN(C(=O)Nc1ccc(Cl)c(Cl)c1)C(C)c1cccs1 (stereo unspecified)	inactive: 0%
COc1cccc(OC(=O)CSc2nnc(-c3ccc4c(c3)OCO4)o2)c1	inactive: -0.09%
Cc1cccc(-c2nc3c4ccccc4nc(NCc4ccc(F)cc4)n3n2)c1	inactive: -2.06%
CCOC(=O)c1c(S(=O)(=O)NCC(=O)NCc2ccccc2)c(C)n(C)c1C	inactive: 2.05%
CCc1ccc2c(c1)NC(c1ccc(OC)cc1)=NC(c1ccncc1)=N2	inactive: 1.64%
CCOC(=O)c1ccc(OC(=O)c2cn(-c3cccc(OC)c3)c(=O)c3ccccc23)cc1	inactive: -4.08%
COc1cc(/C=C/c2nc(C#N)c(N3CCC(C)CC3)o2)cc(OC)c1OC	inactive: -2.7%
CCOc1ccccc1NC(=O)C(C)N(c1ccccc1)S(C)(=O)=O (stereo unspecified)	inactive: 2.99%
Cc1ccc2c(c1)N(CCCC(=O)NCc1cccc(F)c1)C(=O)CO2	inactive: -9.35%

Compound	activity change, negative = inhibition
CSc1ncc(C(=O)N2CCN(c3cccc(C(F)(F)F)c3)CC2)c(C)n1	inactive: 0.558%
COc1ccccc1OCC(=O)Nc1c(C(=O)c2ccc(F)cc2)oc2ccccc12	inactive: 4.34%
Cc1ccc(NC(=O)C2CCN(S(=O)(=O)c3cc(-c4noc(C)n4)ccc3C)CC2)c(C)c1	inactive: -10.4%
CCCN(CCC)CCCNC(=O)c1cc2c(=O)[nH]c3ccccc3c2n1C	inactive: 0.773%
COc1cccc(-n2c(=O)c3sc4ccccc4c3n(CC(=O)Nc3ccccc3C)c2=O)c1	inactive: 1.47%
COc1ccc(C2CC(=O)c3cc(-c4nc(-c5cccc([N+](=O)[O-])c5)cs4)c(=O)n(-c4ccc(OC)cc4)c3C2)cc1 (stereo unspecified)	inactive: -8.35%
COc1ccc(C2N3CC4(C)CN2CC(c2ccccc2)(C3)C4=O)cc1OC (stereo unspecified)	inactive: -3.59%
O=C(CSc1c2c(nc3cc(Cl)ccc13)CCCC2)NCc1ccccc1Cl	inactive: -26.5%
Cc1c(C(=O)Nc2ccc(F)cc2F)sc2nc3n(c(=O)c12)N=C(c1ccccc1)CS3	inactive: 0.549%
CC(Sc1oc(-c2cccs2)nc1S(=O)(=O)c1ccccc1)c1ccccc1 (stereo unspecified)	inactive: -6.2%
Cn1nccc1C(=O)NCc1ccc2c(c1)CCN2C(=O)c1ccc(Cl)cc1	inactive: -7.46%
O=C1c2ccccc2-c2onc3c(NCCO)cc(NC4CCCCC4)c1c23	inactive: 3.33%
COc1ccc(C(CNC(=O)COc2cc(C)cc(C)c2)N2CCOCC2)cc1 (stereo unspecified)	inactive: 1.25%
CCc1ccc(Oc2c(C(F)(F)F)oc3c(CN4CCCC(C)C4)c(O)ccc3c2=O)cc1 (stereo unspecified)	inactive: 18.1%
COc1ccc(N2CCN(c3csc4ccccc4c3=O)CC2)cc1	inactive: 7.11%
CCc1ccc(NC(=O)c2nn(-c3ccc(OC)cc3)c(=O)c3c2c2ccccc2n3C)cc1	inactive: -4.45%
CCCCOc1ccc(Cn2c(=O)sc3ccccc32)cc1	inactive: 0.805%
CC(CNC(=O)CCS(=O)(=O)c1cc2c(cc1Cl)NC(=O)CO2)c1ccccc1 (stereo unspecified)	inactive: 3.59%
CCOC(=O)c1ccccc1NC(=O)CCc1nc(-c2ccc(C)cc2)no1	inactive: 0.0571%
CCc1ccccc1NC(=O)C1CCCN(c2cnccn2)C1 (stereo unspecified)	inactive: -7.13%
O=C(Nc1cccc(NC(=O)c2ccccc2Cl)c1)c1cccc(Br)c1	inactive: -3.12%
Cc1cc(C)cc(NC(=O)C(=O)NCC(c2cccnc2)N2CCc3ccccc32)c1 (stereo unspecified)	inactive: 4.35%
COc1cccc(C(=O)c2sc(Nc3ccc(F)c(Cl)c3)nc2N)c1	inactive: 1.52%
Cn1c(=O)c2sccc2n2c(CCC(=O)Nc3ccc(F)cc3)nnc12	inactive: 6.47%

Compound	activity change, negative = inhibition
COc1ccc(OC)c(-c2noc(N3CCN(c4cc(Cl)ccc4C)CC3)n2)c1	inactive: -15.4%
Cc1ccc(C)c(NC(=O)CSc2nnc(C)n3c2cc2occc23)c1	inactive: -3.29%
CCC1CCCCN1CCCNC(=O)c1ccc2c(c1)sc1nc(-c3ccc(F)cc3)cn12 (stereo unspecified)	inactive: 1.48%
O=S(=O)(Nc1cccc(-c2ccc(N3CCOCC3)nn2)c1)c1cc(C(F)(F)F)ccc1Cl	inactive: -8.06%
COc1ccccc1NC(=O)CN1CCN(CC(=O)Nc2ccc(F)c(F)c2)CC1	inactive: -8.98%
COC(=O)c1ccc(Cl)cc1NC(=O)Nc1nnc(N(C)Cc2ccccc2)s1	inactive: -13.6%
CCC(C(=O)OC)n1nnc2sc(-c3ccccc3)cc2c1=O (stereo unspecified)	inactive: -11%
CCOC(=O)c1ccc(CN(Cc2ccc(Br)cc2)S(=O)(=O)c2cccc(C(F)(F)F)c2)cc1	inactive: 13.5%
Cc1ccc(N2C(=O)CS(=O)(=O)C23C(=O)N(Cc2ccccc2F)c2ccccc23)cc1Cl (stereo unspecified)	inactive: -16.1%
O=C(COc1ccccc1Cl)Nc1ccccc1OCc1cc(=O)n2ccccc2n1	inactive: 3.45%
CN(c1ccccc1)C(CNS(=O)(=O)c1ccccc1)c1ccccc1 (stereo unspecified)	inactive: -11.7%
O=C(CN1C(=O)C2CCCCN2c2ccc(C(=O)N3CCCC3)cc21)NCc1ccccc1F (stereo unspecified)	inactive: -11.2%
CCCCN(CC)CCNc1ncnc2onc(-c3ccc(Cl)cc3)c12	inactive: -1.24%
CC(C)COc1ccc(Nc2ncnc3ccc(Br)cc23)cc1	inactive: -10.5%
Cc1cccc(NC(=O)NC2COc3ccccc3C2)c1C (stereo unspecified)	inactive: 5.38%
CNS(=O)(=O)c1cn(CC(=O)Nc2cccc(C(F)(F)F)c2)cc1S(=O)(=O)NC	inactive: 0.868%
COC(=O)c1sccc1S(=O)(=O)N(CC(=O)NCc1ccc(F)cc1)c1ccc(C)c(C)c1	inactive: -0.118%
CNS(=O)(=O)c1cn(CC(=O)N2CCN(c3ccc(C)cc3C)CC2)cc1S(=O)(=O)NC	inactive: 0.675%
CCc1ccc(CNC(=O)C(CC)n2nc(C)c3c(C)n(-c4ccccc4)nc3c2=O)cc1 (stereo unspecified)	inactive: -0.555%
CCCNc1ccc(-c2nc(-c3ccco3)no2)cc1[N+](=O)[O-]	inactive: -1.44%
Cc1cc(S(=O)(=O)n2ccnc2C(C)C)cc([N+](=O)[O-])c1C	inactive: 7.07%
COc1ccc(CNc2nc(-c3ccco3)nn2C(=O)CC(C)C)cc1	inactive: -5.58%
Cc1ccc(CCNC(=O)c2ccc(CNS(=O)(=O)c3ccc(C)cc3)cc2)cc1	inactive: 1.89%
Cc1ccc(Cl)cc1N1CCN(C(=O)c2cn(CC(C)C)c(=O)c3c2c2ccccc2n3C)CC1	inactive: -13%
